In PubChem BioAssay (NCATS):
The list shows a part of the results. The main result of the screen is listed elsewhere. These columns were measured beside it and carry no call. The list favours compounds with an active or inconclusive main result. Words in brackets tell the shape of the fitted curve; partial curves, single points and poor fits give uncertain potencies.

Assay: Cell-based coincidence reporter assay to measure PMP22 gene transcription in S16 Pmp22-F2sN cells - Confirmatory screen (AID 1508646)
Details: S16 Schwann cells Pmp22-F2sN, dual luciferase, 24 h; measured here: FLuc reporter channel
How it was run: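 S16 Schwann cells carrying a bioluminescent reporter in the Pmp22 3' UTR (Pmp22-F2sN) were treated with compounds for 24 h at 37C, then lysed; FLuc and then NLuc luminescence were read sequentially with a dual-luciferase kit on a CCD imager.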
Tags describe the fitted curve by direction and shape.

Question: For `O=C(NCCC1=CCCCC1)c1ccc2c(c1)N(Cc1ccccc1)C(=O)c1ccccc1S2=O` (centres undefined), which AC50 is on record?
Answer: The AC50 was 15.3 µM [falling, partial curve].

Question: With `COCCN1Cc2cccc(C(=O)Nc3ccc(Cl)cc3Cl)c2C1=O` as the compound, how does the AC50 read?
Answer: Its AC50 is 15.3 µM [falling, full curve, poor fit].

Question: For `COc1ccccc1CNC(=O)Cn1c(=O)oc2cc(S(=O)(=O)N3CCC(C)CC3)ccc21`, which AC50 is on record?
Answer: The AC50 was 13.7 µM [falling, full curve, poor fit].

Question: For `CCc1ccc(S(=O)(=O)c2cn(Cc3ccccc3F)c3cc(OC)c(OC)cc3c2=O)cc1`, which AC50 is on record?
Answer: Its AC50 is 3.06 µM [falling, partial curve, poor fit].

Question: With `COCCNC(=O)c1cccc(Nc2nc3ccccc3n3nnnc23)c1` as the compound, how does the AC50 read?
Answer: The AC50 was 9.68 µM [falling, full curve].

Question: With `CCOc1ccc(C(=O)N2CCc3cc(OC)c(OC)cc3C2COc2ccc3c(C)cc(=O)oc3c2)cc1OCC` (centres undefined) as the compound, how does the AC50 read?
Answer: Its AC50 is 8.62 µM [falling, partial curve, poor fit].

Question: Which AC50 does the source give for `CCOc1ccc(CN2CCc3nc(N4CCN(c5ccccc5OC)CC4)ncc3C2)cc1OC` here?
Answer: The AC50 was 21.7 µM [falling, partial curve, poor fit].

Question: With `CCN(Cc1ccccc1)C(=O)c1nn(-c2ccc(OC)cc2)c(=O)c2c1c1ccccc1n2C` as the compound, how does the AC50 read?
Answer: The AC50 was 17.2 µM [falling, partial curve, poor fit].

Question: For `CCC(=O)N1CCc2cc(Br)cc(S(=O)(=O)N3CCCC(C(=O)NCc4cccc(OC)c4)C3)c21` (centres undefined), which AC50 is on record?
Answer: Its AC50 is 24.3 µM [falling, partial curve, poor fit].
